ChEMBL document CHEMBL1201862, “PubChem BioAssay data set” (2004)
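Five concentrations, 48 hours, 96-well plates. GI50 marks 50% less growth.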 Activity calls are given as the source filed them. Cut-off read from the data, not from the text of the source: active = GI50 up to about 1.1 µM and inactive = higher.

The molecules below were run on NCI-H322M (assay: NCI anticancer screen, dose series, 48 h).

| SMILES | GI50 |
| --- | --- |
| CCc1ccccc1NC(=O)C1=C(C)NC(C)=C(C(=O)Nc2ccccc2CC)C1c1ccccc1Cl | inactive: > 100 µM |
| COc1ccc(OC)c(CC(C)N)c1 (stereo not drawn) | inactive: > 100 µM |
| CCOC(=O)NC(=O)c1cn(CCCOC(=O)NCCCCCCNC(=O)OCCCn2c(=O)c(C(=O)NC(=O)OCC)cn(C)c2=O)c(=O)n(C)c1=O | inactive: > 100 µM |
| CC1(C)CC(=O)c2c(nc3c(ccc4ccccc43)c2-c2ccc(NC(=O)CCCCC(=O)Nc3ccc(-c4c5c(nc6c4ccc4ccccc46)CC(C)(C)CC5=O)cc3)cc2)C1 | inactive: 21.6 µM |
| O=C(O)CCC(=O)Oc1ccc(O)c2c1CCCC2=O | inactive: > 100 µM |
| CCOP(=O)(OCC)C(C(=O)OC)C(=O)C(=O)Nc1cccc(O)c1 (stereo not drawn) | inactive: > 100 µM |
| COc1cccc2c1C(=O)c1c(O)c3c(c(O)c1C2=O)C[C@@](O)(C(=O)CO)C[C@@H]3OC1CC(N2CCOCC2C#N)C(O)C(C)O1 (stereo partly drawn) | active: 9.16e-05 µM |
| COC1(OC)CCC2(C)OC(c3ccccc3)C1O2 (stereo not drawn) | inactive: > 100 µM |
| CCOC(=O)c1cn2c(n1)sc1c(Cl)c(Cl)ccc12 | inactive: 32.4 µM |
| c1ccc(B2OCC(C3OB(c4ccccc4)OC4COB(c5ccccc5)OC43)O2)cc1 (stereo not drawn) | inactive: > 100 µM |
| Cc1cccc2c1NC(=O)/C2=N\Nc1ccccc1[N+](=O)[O-] | inactive: 13.2 µM |
| S=C(c1c[nH]c2ccccc12)N1CCOCC1 | inactive: > 100 µM |
| C/C(=N\NC(=S)Nc1ccc(Cl)cc1)c1nc2cccnc2[nH]1 | inactive: 1.88 µM |
| CN1CCC2(CC1)SSC1(CCN(C)CC1)S2 | inactive: > 100 µM |
| CS(=O)(=O)Nc1ccc2c(c1)N(S(C)(=O)=O)CC2CCl (stereo not drawn) | inactive: > 100 µM |
| FC(F)(Sc1ccccc1)c1nc2ccccc2o1 | inactive: > 100 µM |
| CCCCCC(O)C1C(=O)OC(C)C(O)/C=C/C=C/C=C/C=C\C=C(\C)C(O)CC(O)CC(O)CC(O)CC(O)CC(O)CC1O (stereo not drawn) | inactive: > 50 µM |
| COc1cccc(-c2cc(O)c3cc(C)cnc3n2)c1 | active: 0.427 µM |
| N=C(N)C1CN(CCc2c[nH]cn2)C(=O)NC1=O (stereo not drawn) | inactive: > 100 µM |
| N#Cc1cccc(N2C(=O)c3c(c(-c4ccccc4)c(-c4ccc(Sc5ccc(-c6c(-c7ccccc7)c7c(c(-c8ccccc8)c6-c6ccccc6)C(=O)N(c6cccc(C#N)c6)C7=O)cc5)cc4)c(-c4ccccc4)c3-c3ccccc3)C2=O)c1 | inactive: > 100 µM |
| Cc1cc(S(=O)(=O)Nc2nc(N)n[nH]2)c(Cl)cc1Cl | inactive: > 10 µM |

| SMILES | GI50 |
| --- | --- |
| N#Cc1cc(C#N)c(Cl)nc1N | inactive: > 10 µM |
| N#Cc1nc(CCCCCN2C(=O)c3ccccc3C2=O)oc1N | inactive: > 100 µM |
| N#Cc1c(Nc2ccccc2)[n+]([O-])c2ccc(Cl)cc2[n+]1[O-] | inactive: 33.3 µM |
| CC#C[C@]1(O)CCC2[C@@H]3CCC4=CC(=O)CCC4=C3[C@@H](c3ccc(N(C)C)cc3)C[C@@]21C (stereo partly drawn) | inactive: 22.5 µM |
| COC1=CC(=O)C2=C(C[C@@]3(C)C(=C2)C(CO)=CC[C@H]3O)C1=O | inactive: > 100 µM |
| O=c1[nH]c(=O)n(C2OC(CO)C(O)C2O)cc1/N=N/NCc1ccccc1 (stereo not drawn) | inactive: > 100 µM |
| CCCCCCCC/C=C\CCCCCCCC(=O)O [OLEIC ACID] | inactive: 417 µM |
| CN(C)/C=N/c1ccc2[nH]c3ccccc3c2c1 | inactive: 43.7 µM |
| Clc1ccc2c(NCCCCCCNc3ccnc4cc(Cl)ccc34)ccnc2c1 | inactive: 5.24 µM |
| CCOC(=O)c1[nH]cc(C)c1-c1ccc2c(-c3ccccc3)nc3ccccc3n12 | inactive: 5.51 µM |
| ClC(/N=N/c1ccccc1)=N/Nc1ccccc1 | inactive: > 100 µM |
| CC(C)c1cc(C(C)C)c(B(c2ccccc2)c2ccccc2)c(C(C)C)c1Br | inactive: > 100 µM |
| N[C@@H](Cc1ccccc1)C(=O)N1CCC[C@@H]1P(=O)(Oc1ccccc1)Oc1ccccc1 | inactive: > 100 µM |
| Cc1cnc2nc(-c3ccc(F)cc3)cc(O)c2c1 | inactive: 32.2 µM |
| CN/N=C(/CC(=O)c1sc(-n2nc(-c3ccccc3)cc2-c2ccccc2)nc1C)C(=O)Nc1ccc(Cl)c(Cl)c1 | inactive: > 100 µM |
| O=C1C(Cl)=C(Cl)C(=O)C2=C1C1c3ccccc3C2c2ccccc21 | inactive: 56.9 µM |
| CC(C(=O)c1ccncc1)c1ccccn1 (stereo not drawn) | inactive: > 100 µM |
| O=C(/C=C\c1cccc2ccccc12)c1ccc(F)cc1 | inactive: 21.5 µM |
| ONc1ncnc2[nH]cnc12 | inactive: > 100 µM |
| COCCCNC(=O)C1C(=O)C(=O)N(CCCOC)C1=O (stereo not drawn) | inactive: > 100 µM |
| COc1cc([C@H]2c3[nH]c4ccccc4c3C[C@H]3COC(=O)N32)cc(OC)c1O | inactive: 2.86 µM |

| SMILES | GI50 |
| --- | --- |
| CC(C)C1OC2(C)OC(=N)C1(C#N)C(C#N)(C#N)C2C (stereo not drawn) | inactive: > 100 µM |
| O=C1O[C@H]2[C@@H]3OC(=O)c4cc(O)c(O)c(O)c4-c4c(cc(O)c(O)c4O)C(=O)OC[C@H]2O[C@@H](OC(=O)c2cc(O)c(O)c(O)c2)[C@@H]3OC(=O)c2cc(O)c(O)c3c2[C@@H]2C1=CC(=O)C(O)(O)C2(O)O3 (stereo partly drawn) | inactive: 17.1 µM |
| COc1cc2c(cc1OCc1ccccc1)NC(=O)[C@@H]1CCCN1C2=O | inactive: > 100 µM |
| C1CN2CCO[SiH](O1)OCC2 | inactive: > 100 µM |
| CN(C)[C@@H]1C(O)=C(C(=O)NCN2CCN(C(=N)NC(=N)N)CC2)C(=O)[C@@]2(O)C(O)=C3C(=O)c4c(O)cccc4[C@@](C)(O)[C@H]3C[C@@H]12 | active: 0.743 µM |
| Cc1cccc(/N=N/c2c(C)nn(C(=O)CC(=O)Nc3ccccc3)c2C)c1 | inactive: > 100 µM |
| Cc1ccc(C2=C(c3ccccc3)C(=O)C(c3ccccc3)=C2c2ccc(C)cc2)cc1 | inactive: 78.2 µM |
| CCOC(=O)c1cc(-c2ccc(-c3cc(C(=O)OCC)c(C#N)c(N)c3C#N)cc2)c(C#N)c(N)c1C#N | inactive: > 100 µM |
| COc1ccc(C(=O)/C=C/c2ccc(O)c(O)c2)c(OC)c1 | inactive: 1.52 µM |
| COC(=O)C1C=CCC2CCCCC21N1CCCC1 (stereo not drawn) | inactive: > 100 µM |
| Cc1ccc(NC(=O)/C(=N\NC(N)=O)c2c(O)c3ccccc3[nH]c2=O)cc1 | inactive: > 100 µM |
| O=C1/C(=C/c2ccc([N+](=O)[O-])cc2)CNC/C1=C\c1ccc([N+](=O)[O-])cc1 | inactive: 20.3 µM |
| O=C1c2ccccc2-c2ccc(/N=[N+](/[O-])c3ccc4c(c3)C(=O)c3ccccc3-4)cc21 | inactive: > 100 µM |
| N#CCC12CC=CCC1=C(O)C(=O)c1ccc(O)cc12 (stereo not drawn) | inactive: > 100 µM |
| C(/C=N/c1ccccc1)=C(/Nc1ccccc1)c1ccc2ccccc2c1 | inactive: 4.02 µM |
| CC1=CC(=O)NCCN1C | inactive: > 100 µM |
| NCCC1([N+](=O)[O-])C=CN=CC1 (stereo not drawn) | inactive: > 100 µM |
| O=C(/C=C/c1ccc(Cl)c(Cl)c1)CCN1CCN(CCC(=O)/C=C/c2ccc(Cl)c(Cl)c2)CC1 | inactive: 32.2 µM |
| Cc1ccc(-c2cc(=O)c3cc(C)c(C)c(C(=O)O)c3o2)cc1 | inactive: > 100 µM |
| C=C(CCCCC)CN1CCCC1C(C)=O (stereo not drawn) | inactive: 39.4 µM |
| N=C(/C=C/c1ccc(-c2cn3cc(/C=C/C(=N)N4CCOCC4)ccc3n2)cc1)N1CCOCC1 | inactive: > 100 µM |
